# Some of the results follow.
# B1: Cohesin-hLangerin (Homo sapiens) (protein)
# chain: LDDLDAVRIKVDTVNAKPGDTVRIPVRFSGIPSKGIANCDFVYSYDPNVLEIIEIEPGDIIVDPNPDKSFDTAVYPDRKIIVFLFAEDSGTGAYAITKDGVFATIVAKVKEGAPNGLSVIKFVEVGGFANNDLVEQKTQFFDGGANVGDTTEPATPTTPVTTPTTTDDLDAASYPRFMGTISDVKTNVQLLKGRVDNISTLDSEIKKNSDGMEAAGVQIQMVNESLGYVRSQFLKLKTSVEKANAQIQILTRSWEEVSTLNAQIPELKSDLEKASALNTKIRALQGSLENMSKLLKRQNDILQVVSQGWKYFKGNFYYFSLIPKTWYSAEQFCVSRNSHLTSVTSESEQEFLYKTAGGLIYWIGLTKAGMEGDWSWVDDTPFNKVQSARFWIPGEPNNAGNNEHCGNIKAPSLQAWNDAPCDKTFLFICKRPYVPSEPHHHHHH
# Columns and labels:
# Experiment in all cases: glycan array binding signal (z-score within array); higher = stronger binding
# Details in all cases: glycan notation: IUPAC condensed, linker removed
# [1] = target: Gal(b1-4)GlcNAc(b1-6)GalNAc
# Summary of the method: (§1)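 The binding signal is a Z-score computed within each array and averaged over linkers. Arrays of the same protein sequence at different concentrations or buffers were also averaged together. Data originate from 3228 arrays in the Consortium for Functional Glycomics database, kept only where the protein sequence was available.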
# [2] = target: Gal(b1-4)GlcNAc(b1-6)[Gal(b1-3)]GalNAc
# Summary of the method: as §1
# [3] = target: Gal(b1-4)GlcNAc(b1-6)[Gal(b1-4)GlcNAc(b1-3)]GalNAc
# Summary of the method: as §1
# Gal(b1-4)GlcNAc6P = target: Gal(b1-4)GlcNAc6P
# Summary of the method: as §1
# Gal(b1-6)Gal = target: Gal(b1-6)Gal
# Summary of the method: as §1
# Gal3S(b1-3)GalNAc = target: Gal3S(b1-3)GalNAc
# Summary of the method: as §1
# Gal3S(b1-3)GlcNAc = target: Gal3S(b1-3)GlcNAc
# Summary of the method: as §1
# [4] = target: Gal3S(b1-3)[Fuc(a1-4)]GlcNAc
# Summary of the method: as §1
# Gal3S(b1-4)Glc = target: Gal3S(b1-4)Glc
# Summary of the method: as §1
# Gal3S(b1-4)Glc6S = target: Gal3S(b1-4)Glc6S
# Summary of the method: as §1
# Gal3S(b1-4)GlcNAc = target: Gal3S(b1-4)GlcNAc
# Summary of the method: as §1
# [5] = target: Gal3S(b1-4)[Fuc(a1-3)]Glc6S
# Summary of the method: as §1
# [6] = target: Gal3S(b1-4)[Fuc(a1-3)]GlcNAc
# Summary of the method: as §1
# [7] = target: Gal3S(b1-4)[Fuc(a1-3)]GlcNAc6S
# Summary of the method: as §1
# Gal3S4S(b1-4)GlcNAc = target: Gal3S4S(b1-4)GlcNAc
# Summary of the method: as §1
# Gal3S6S(b1-4)GlcNAc = target: Gal3S6S(b1-4)GlcNAc
# Summary of the method: as §1
# Gal3S6S(b1-4)GlcNAc6S = target: Gal3S6S(b1-4)GlcNAc6S
# Summary of the method: as §1
# Gal4S(b1-4)GlcNAc = target: Gal4S(b1-4)GlcNAc
# Summary of the method: as §1
# Gal4S6S(b1-4)GlcNAc = target: Gal4S6S(b1-4)GlcNAc
# Summary of the method: as §1
# Gal6P(b1-4)GlcNAc = target: Gal6P(b1-4)GlcNAc
# Summary of the method: as §1
# Gal6S(b1-3)GlcNAc = target: Gal6S(b1-3)GlcNAc
# Summary of the method: as §1
# Gal6S(b1-3)GlcNAc6S = target: Gal6S(b1-3)GlcNAc6S
# Summary of the method: as §1
# Gal6S(b1-4)Glc = target: Gal6S(b1-4)Glc
# Summary of the method: as §1
binder,measurement,setting,value
B1,glycan array binding signal (z-score),[1],-0.274
same,glycan array binding signal (z-score),[2],-0.235
same,glycan array binding signal (z-score),[3],-0.417
same,glycan array binding signal (z-score),Gal(b1-4)GlcNAc6P,-0.37
same,glycan array binding signal (z-score),Gal(b1-6)Gal,-0.346
same,glycan array binding signal (z-score),Gal3S(b1-3)GalNAc,-0.06
same,glycan array binding signal (z-score),Gal3S(b1-3)GlcNAc,-0.12
same,glycan array binding signal (z-score),[4],-0.36
same,glycan array binding signal (z-score),Gal3S(b1-4)Glc,0.737
same,glycan array binding signal (z-score),Gal3S(b1-4)Glc6S,-0.135
same,glycan array binding signal (z-score),Gal3S(b1-4)GlcNAc,-0.253
same,glycan array binding signal (z-score),[5],-0.395
same,glycan array binding signal (z-score),[6],-0.297
same,glycan array binding signal (z-score),[7],0.275
same,glycan array binding signal (z-score),Gal3S4S(b1-4)GlcNAc,-0.417
same,glycan array binding signal (z-score),Gal3S6S(b1-4)GlcNAc,-0.287
same,glycan array binding signal (z-score),Gal3S6S(b1-4)GlcNAc6S,-0.352
same,glycan array binding signal (z-score),Gal4S(b1-4)GlcNAc,-0.43
same,glycan array binding signal (z-score),Gal4S6S(b1-4)GlcNAc,-0.385
same,glycan array binding signal (z-score),Gal6P(b1-4)GlcNAc,-0.264
same,glycan array binding signal (z-score),Gal6S(b1-3)GlcNAc,3.37
same,glycan array binding signal (z-score),Gal6S(b1-3)GlcNAc6S,5.12
same,glycan array binding signal (z-score),Gal6S(b1-4)Glc,1.29
